Laboratory results reported in PubChem BioAssay AID1745853 (National Center for Advancing Translational Sciences (NCATS), 2022).
The other results are listed elsewhere or left out. The main result of the screen is listed elsewhere. These columns were measured beside it and carry no call.

Legend:
Assay in all cases: Primary Screen for Target Class Profiling of Small Molecule Inhibitors of Methyltransferases
[1] = target: Glycine N-methyltransferase (Homo sapiens) (UniProt Q14749); settings: purified enzyme, MTase-Glo SAH luminescence; measured here: GNMT inhibition; at 40 µM; stronger effect = lower value
In short: (§1)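 Each enzyme was assayed with SAM and its substrate. SAH formation detected by MTase-Glo luminescence; single-point 40 uM screen[…].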

[2] = target: Guanidinoacetate N-methyltransferase (Homo sapiens) (UniProt Q14353); settings: purified enzyme, MTase-Glo SAH luminescence; measured here: GAMT inhibition; at 40 µM; stronger effect = lower value
In short: as §1

[3] = target: Histamine N-methyltransferase (Homo sapiens) (UniProt P50135); settings: purified enzyme, MTase-Glo SAH luminescence; measured here: HNMT inhibition; at 40 µM; stronger effect = lower value
In short: as §1

[4] = target: Nicotinamide N-methyltransferase (Homo sapiens) (UniProt P40261); settings: purified enzyme, MTase-Glo SAH luminescence; measured here: NNMT inhibition; at 40 µM; stronger effect = lower value
In short: as §1

[5] = target: Phenylethanolamine N-methyltransferase (Homo sapiens) (UniProt P11086); settings: purified enzyme, MTase-Glo SAH luminescence; measured here: PNMT inhibition; at 40 µM; stronger effect = lower value
In short: as §1
% is scaled to controls: 0 for no effect and ±100 for the full control effect.

| SMILES | activity change, negative = inhibition [1] | activity change, negative = inhibition [2] | activity change, negative = inhibition [3] | activity change, negative = inhibition [4] | activity change, negative = inhibition [5] |
| --- | --- | --- | --- | --- | --- |
| O=C(CCn1cncn1)N1CCc2ncnc(N3CC=CC3)c2CC1 | -3.38% | -0.305% | 1.32% | -1.52% | -11.1% |
| COc1ccc(-c2cc3n(n2)CC(C)(C(=O)NCc2ccccc2)N(CCc2ccccc2)C3=O)cc1 (configuration not stated) | -0.811% | 3.13% | 2.43% | 4.09% | -0.259% |
| Cc1ccc(C)c(N2C(=O)CSc3c(c4ccccc4n3C)C2C(=O)NCc2ccccc2)c1 (configuration not stated) | 9.8% | 0% | 3.83% | -0.556% | 5.37% |
| C=C1CCC2C(C)(C)C(O)CCC2(C)C1CCC(C)CCOC(C)=O (configuration not stated) | -2.24% | 0.107% | 6.54% | -17.1% | -8.52% |
| COc1ccc(CN2CC3(CCN(S(=O)(=O)c4c(C)nn(C)c4C)CC3)C2=O)cc1 | -3.02% | -12.2% | -2.53% | -13.8% | -1% |
| CCOc1ccccc1CN1C(=O)c2ccc(-c3ccco3)n2CC1(C)C(=O)NC1CCCC1 (configuration not stated) | -4.81% | 0.749% | 8.43% | 5.43% | 1.54% |
| Cc1cccc(CC(=O)N2CC(Oc3ccccc3-c3noc(C)n3)C2)c1 | -8.84% | -2.23% | -0.368% | -12.9% | -2.21% |
| CCN1C(=O)CN(C(=O)CC(C)C)CC12CCOCC2 | -1.83% | -0.469% | -1.52% | 3.31% | 4.73% |
| COC(=O)c1c(C)[nH]c(C)c1C(=O)c1ccccc1Cc1ccccc1 | -5% | 8.77% | -0.462% | -8.84% | 10.3% |
| Cc1cc(C)c(NS(=O)(=O)c2cc3c(cc2Cl)n(C)c(=O)n3C)c(C)c1 | 13.2% | 0.128% | -29.2% | 3.52% | 7.72% |
| O=C1c2ccccc2C(=O)c2cc(S(=O)(=O)N(CCO)CCO)ccc21 | -27.7% | -1.77% | -1.92% | -2.42% | -68.4% |
| CC(=O)N1CC[C@H](c2nc3ccc(C#N)cc3[nH]2)C1 | -7.44% | -5.22% | -26.1% | -8.26% | -5.64% |
| O=C(C1CCN([S+](=O)([O-])c2cccs2)C1)N1CCC(c2nc3ncccc3[nH]2)CC1 (configuration not stated) | 40.1% | 4.55% | -3.23% | -0.818% | -3.81% |
| O=C1[C@@H]2C[C@@H](CN2Cc2ccc3c(c2)OCO3)Oc2ccccc2N1CC1CC1 | -4.88% | -2.77% | -2.49% | -13.6% | -0.692% |
| Cc1c(Cl)cccc1N1C(=O)c2cc3sccc3n2CC1(C)C(=O)NC1CCC(C)CC1 (configuration not stated) | 4.43% | 2.65% | 7.04% | 1.91% | 0.5% |
| CC[C@H]1OC(=O)[C@H](C)[C@@H](O[C@H]2C[C@@](C)(OC)[C@@H](O)[C@H](C)O2)[C@H](C)[C@@H](O[C@H]2O[C@H](C)C[C@H](N(C)C)[C@H]2O)[C@](C)(O)C[C@@H](C)C(=O)[C@H](C)[C@@H](O)[C@]1(C)O | -2% |  | 6.41% |  |  |
| CC(C)(C)c1cc2n(n1)CC(C)(C(=O)NC1CCCCCC1)N(c1ccc(F)cc1)C2=O (configuration not stated) | -5.42% | 2.45% | -0.908% | -6.73% | -4.29% |
| CCCn1c(=O)c2ccc(C(=O)NC(C)C)cc2n2c(=O)n(CC(=O)Nc3ccc(C)c(F)c3)nc12 | -3.47% | 0.932% | -2.86% | -1.22% | -0.408% |
| CCOc1nc2cccc(C(=O)OCc3oc(=O)oc3C)c2n1Cc1ccc(-c2ccccc2-c2noc(O)n2)cc1 | -4.85% | -1.46% | 13.4% | -21.1% | -4.65% |
| CCC(C)NC(=O)c1ccc2c(=O)n(C)c3nn(CC(=O)Nc4cccc(C)c4)c(=O)n3c2c1 (configuration not stated) | -1.58% | 0.198% | 2.86% | 0.231% | 4.08% |
| Cc1sc2ccn(CC(C)C)c(=O)c2c1C(=O)N1CCCCC1 | -8.64% | -2.25% | 0.57% | -5.84% | -13% |
| O=C(c1cc(-c2ccsc2)c2nncn2n1)N1CCN(Cc2ccccc2)CC1 | -9.42% | -10.9% | -5.87% | -22.4% | -21.5% |
| O=S(=O)(Nc1cccc(F)c1)c1cccc(-c2nc(-c3ccccc3)no2)c1 | 4.21% | 0% | -1.09% | -11.2% | 2.84% |
| CCNc1ncc(C(=O)N[C@H](c2cnn(C)c2)C2CC(O)C2)cn1 (some centres not stated) | 0.453% | 0.063% | 2.03% | 2.24% | 1.06% |
| O=C(NCc1ccc(Cl)nc1)c1cn2c(n1)CN(C(=O)c1cccnc1)CC2 | -7.79% | -4.42% | -1.18% | -13.1% | -7.09% |
| CCc1cccc2c(C(CC(=O)N3CCCC3)c3cccc([N+](=O)[O-])c3)c[nH]c12 (configuration not stated) | -5.33% | -3.06% | -3.27% | -13.3% | -1.52% |
| COc1cccc(N2C(=O)NC(=NC3CCCC3)C23CCN([S+](=O)([O-])c2cccs2)C3)c1 (configuration not stated) | -4.04% | -5.14% | -1.46% | -9.68% | -4.78% |
| Cn1cc(CCNC(=O)c2ccc3oc(-c4cccc(F)c4)nc3c2)cn1 | -1.17% | -1.35% | 2.66% | -3.46% | -0.883% |
| CC(C)Cn1c(=O)c2ccc(C(=O)NC3CCCCC3)cc2n2c(=O)n(CC(=O)NC(C)(C)C)nc12 | 5.42% | 1.22% | 10.5% | 6.75% | 7.71% |
